# Source: the supplement of paper PMC8728848
# Some of the results follow.
# B1: PX9961J-bvu-499-24-499 (Bacteroides vulgatus) (protein)
# chain: LNTDPSTAVPSDDAIKNIDDAQVALNGIYRLASAHSYYGDNYLYYADCRGEDVQARINKGAGRRVSPYYFFDVTADDNFNITLVWNQPYKVIHQANSLIEKLDAGNAGNARPEEVARIKSEALAMRGLALFDLTRLFGMPYTLDNGASLGVPIEIQTTLEDHAPERNTVAQCYEQVLKDLNDALGGLTKEKHDAYMNYWSVKALLSRVYLYMNDNENALKCAEEVINDNGGIYRLFTHDEYPSVWGKDFNSESLFEFYFTMSEPSGGSGGEGAPMVYADNVKDWNNLILTKAYLDLLNEDPEDVRHVFPHLPENAVADTLPVAAKGQPKYLIKYPGKSGSVTDAVSTVNPQDNDLCILRLSEVYLNAAEAAFKIGNTEKALTYLNAIVTRANPAKSVTSADLSLERILKERRKELVGEGHAFFDYMRNGKSVDRSGGWHLTMPEDARVIAPSDPRVALPIPQTEIDANPNIVQNPR
# What was measured:
# Experiment in all cases: glycan array binding signal (z-score within array); higher = stronger binding
# Settings in all cases: glycan notation: IUPAC condensed, linker removed
# [1] = target: Fuc(a1-2)[Gal(a1-3)]Gal(b1-4)GlcNAc(b1-2)Man(a1-3)[Fuc(a1-2)[Gal(a1-3)]Gal(b1-4)GlcNAc(b1-2)Man(a1-6)]Man(b1-4)GlcNAc(b1-4)[Fuc(a1-6)]GlcNAc
# Method in brief: (§1)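 Glycan array data were curated from 3228 arrays in the Consortium for Functional Glycomics database and kept only where the protein sequence was available. Glycan names were converted to IUPAC-condensed notation, and columns mapping to the same glycan were averaged. The binding signal is a within-array Z-score, averaged across arrays of the same protein sequence at different concentrations or buffers and across linkers. Negative Z-scores can be read as non-binding.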
# [2] = target: Fuc(a1-2)[Gal(a1-3)]Gal(b1-4)GlcNAc(b1-3)GalNAc
# Method in brief: as §1
# [3] = target: Fuc(a1-2)[Gal(a1-3)]Gal(b1-4)GlcNAc(b1-3)[Fuc(a1-2)[Gal(a1-3)]Gal(b1-4)GlcNAc(b1-6)]GalNAc
# Method in brief: as §1
# [4] = target: Fuc(a1-2)[Gal(a1-3)]Gal(b1-4)GlcNAc(b1-6)GalNAc
# Method in brief: as §1
# [5] = target: Fuc(a1-2)[Gal(a1-3)]Gal(b1-4)[Fuc(a1-3)]Glc
# Method in brief: as §1
# [6] = target: Fuc(a1-2)[Gal(a1-3)]Gal(b1-4)[Fuc(a1-3)]GlcNAc
# Method in brief: as §1
# [7] = target: Fuc(a1-2)[Gal(a1-3)]Gal(b1-4)[Fuc(a1-3)]GlcNAc(b1-3)GalNAc
# Method in brief: as §1
# [8] = target: Fuc(a1-2)[Gal(a1-4)]Gal(b1-4)GlcNAc
# Method in brief: as §1
# [9] = target: Fuc(a1-2)[GalNAc(a1-3)]Gal
# Method in brief: as §1
# [10] = target: Fuc(a1-2)[GalNAc(a1-3)]Gal(b1-3)GalNAc(a1-3)[Fuc(a1-2)]Gal(b1-4)GlcNAc
# Method in brief: as §1
# [11] = target: Fuc(a1-2)[GalNAc(a1-3)]Gal(b1-3)GalNAc(b1-3)Gal(a1-4)Gal(b1-4)Glc
# Method in brief: as §1
# [12] = target: Fuc(a1-2)[GalNAc(a1-3)]Gal(b1-3)GlcNAc
# Method in brief: as §1
# [13] = target: Fuc(a1-2)[GalNAc(a1-3)]Gal(b1-3)GlcNAc(b1-2)Man(a1-3)[Fuc(a1-2)[GalNAc(a1-3)]Gal(b1-3)GlcNAc(b1-2)Man(a1-6)]Man(b1-4)GlcNAc(b1-4)GlcNAc
# Method in brief: as §1
# [14] = target: Fuc(a1-2)[GalNAc(a1-3)]Gal(b1-3)GlcNAc(b1-2)Man(a1-3)[Fuc(a1-2)[GalNAc(a1-3)]Gal(b1-3)GlcNAc(b1-2)Man(a1-6)]Man(b1-4)GlcNAc(b1-4)[Fuc(a1-6)]GlcNAc
# Method in brief: as §1
# [15] = target: Fuc(a1-2)[GalNAc(a1-3)]Gal(b1-3)GlcNAc(b1-3)GalNAc
# Method in brief: as §1
# [16] = target: Fuc(a1-2)[GalNAc(a1-3)]Gal(b1-3)GlcNAc(b1-6)GalNAc
# Method in brief: as §1
# [17] = target: Fuc(a1-2)[GalNAc(a1-3)]Gal(b1-4)Glc
# Method in brief: as §1
# [18] = target: Fuc(a1-2)[GalNAc(a1-3)]Gal(b1-4)GlcNAc
# Method in brief: as §1
# [19] = target: Fuc(a1-2)[GalNAc(a1-3)]Gal(b1-4)GlcNAc(b1-2)Man
# Method in brief: as §1
# [20] = target: Fuc(a1-2)[GalNAc(a1-3)]Gal(b1-4)GlcNAc(b1-2)Man(a1-3)[Fuc(a1-2)[GalNAc(a1-3)]Gal(b1-4)GlcNAc(b1-2)Man(a1-6)]Man(b1-4)GlcNAc(b1-4)GlcNAc
# Method in brief: as §1
# [21] = target: Fuc(a1-2)[GalNAc(a1-3)]Gal(b1-4)GlcNAc(b1-2)Man(a1-3)[Fuc(a1-2)[GalNAc(a1-3)]Gal(b1-4)GlcNAc(b1-2)Man(a1-6)]Man(b1-4)GlcNAc(b1-4)[Fuc(a1-6)]GlcNAc
# Method in brief: as §1
# [22] = target: Fuc(a1-2)[GalNAc(a1-3)]Gal(b1-4)GlcNAc(b1-3)Gal(b1-4)GlcNAc
# Method in brief: as §1
# [23] = target: Fuc(a1-2)[GalNAc(a1-3)]Gal(b1-4)GlcNAc(b1-3)Gal(b1-4)GlcNAc(b1-3)Gal(b1-4)GlcNAc
# Method in brief: as §1
# [24] = target: Fuc(a1-2)[GalNAc(a1-3)]Gal(b1-4)GlcNAc(b1-3)GalNAc
# Method in brief: as §1
# [25] = target: Fuc(a1-2)[GalNAc(a1-3)]Gal(b1-4)GlcNAc(b1-3)[Fuc(a1-2)[GalNAc(a1-3)]Gal(b1-4)GlcNAc(b1-6)]GalNAc
# Method in brief: as §1
# [26] = target: Fuc(a1-2)[GalNAc(a1-3)]Gal(b1-4)GlcNAc(b1-6)GalNAc
# Method in brief: as §1
# [27] = target: Fuc(a1-2)[GalNAc(a1-3)]Gal(b1-4)[Fuc(a1-3)]GlcNAc
# Method in brief: as §1
# [28] = target: Fuc(a1-2)[GalNAc(a1-3)]Gal(b1-4)[Fuc(a1-3)]GlcNAc(b1-3)GalNAc
# Method in brief: as §1
# [29] = target: Fuc(a1-2)[GalNAc(a1-4)]Gal(b1-4)GlcNAc
# Method in brief: as §1
# [30] = target: Fuc(a1-2)[GalNAc(b1-3)]Gal
# Method in brief: as §1
# [31] = target: Fuc(a1-3)GlcNAc
# Method in brief: as §1
# [32] = target: Fuc(a1-3)[Gal(b1-4)]Glc6S
# Method in brief: as §1
# [33] = target: Fuc(a1-3)[Gal(b1-4)]GlcNAc
# Method in brief: as §1
# [34] = target: Fuc(a1-3)[Gal(b1-4)]GlcNAc(b1-2)Man
# Method in brief: as §1
# [35] = target: Fuc(a1-3)[Gal(b1-4)]GlcNAc(b1-2)Man(a1-3)[Fuc(a1-3)[Gal(b1-4)]GlcNAc(b1-2)Man(a1-6)]Man(b1-4)GlcNAc(b1-4)GlcNAc
# Method in brief: as §1
# [36] = target: Fuc(a1-3)[Gal(b1-4)]GlcNAc(b1-2)Man(a1-3)[Fuc(a1-3)[Gal(b1-4)]GlcNAc(b1-2)Man(a1-6)]Man(b1-4)GlcNAc(b1-4)[Fuc(a1-6)]GlcNAc
# Method in brief: as §1
# [37] = target: Fuc(a1-3)[Gal(b1-4)]GlcNAc(b1-3)Gal(b1-3)[Fuc(a1-4)]GlcNAc
# Method in brief: as §1
# [38] = target: Fuc(a1-3)[Gal(b1-4)]GlcNAc(b1-3)Gal(b1-4)[Fuc(a1-3)]GlcNAc
# Method in brief: as §1
# [39] = target: Fuc(a1-3)[Gal(b1-4)]GlcNAc(b1-3)Gal(b1-4)[Fuc(a1-3)]GlcNAc(b1-3)Gal(b1-4)[Fuc(a1-3)]GlcNAc
# Method in brief: as §1
# [40] = target: Fuc(a1-3)[Gal(b1-4)]GlcNAc(b1-3)GalNAc
# Method in brief: as §1
# [41] = target: Fuc(a1-3)[Gal(b1-4)]GlcNAc(b1-6)GalNAc
# Method in brief: as §1
# [42] = target: Fuc(a1-3)[Gal(b1-4)]GlcNAc(b1-6)[Gal(b1-3)GlcNAc(b1-3)]Gal(b1-4)Glc
# Method in brief: as §1
# [43] = target: Fuc(a1-3)[Gal(b1-4)]GlcNAc6S
# Method in brief: as §1
# [44] = target: Fuc(a1-3)[Gal3S(b1-4)]Glc
# Method in brief: as §1
# [45] = target: Fuc(a1-3)[Gal3S(b1-4)]GlcNAc
# Method in brief: as §1
binder,measurement,setting,value
B1,glycan array binding signal (z-score),[1],-0.327
same,glycan array binding signal (z-score),[2],-0.271
same,glycan array binding signal (z-score),[3],0.131
same,glycan array binding signal (z-score),[4],-0.764
same,glycan array binding signal (z-score),[5],-0.955
same,glycan array binding signal (z-score),[6],-0.173
same,glycan array binding signal (z-score),[7],-0.751
same,glycan array binding signal (z-score),[8],-0.001
same,glycan array binding signal (z-score),[9],-0.294
same,glycan array binding signal (z-score),[10],0.216
same,glycan array binding signal (z-score),[11],0.699
same,glycan array binding signal (z-score),[12],-0.561
same,glycan array binding signal (z-score),[13],-0.288
same,glycan array binding signal (z-score),[14],-0.511
same,glycan array binding signal (z-score),[15],0.521
same,glycan array binding signal (z-score),[16],-0.337
same,glycan array binding signal (z-score),[17],-0.364
same,glycan array binding signal (z-score),[18],-0.716
same,glycan array binding signal (z-score),[19],-0.485
same,glycan array binding signal (z-score),[20],-0.039
same,glycan array binding signal (z-score),[21],-0.461
same,glycan array binding signal (z-score),[22],0.579
same,glycan array binding signal (z-score),[23],0.89
same,glycan array binding signal (z-score),[24],-0.225
same,glycan array binding signal (z-score),[25],-0.67
same,glycan array binding signal (z-score),[26],-0.634
same,glycan array binding signal (z-score),[27],-0.313
same,glycan array binding signal (z-score),[28],0.195
same,glycan array binding signal (z-score),[29],0.237
same,glycan array binding signal (z-score),[30],-0.157
same,glycan array binding signal (z-score),[31],-0.332
same,glycan array binding signal (z-score),[32],0.943
same,glycan array binding signal (z-score),[33],-0.358
same,glycan array binding signal (z-score),[34],-0.237
same,glycan array binding signal (z-score),[35],0.821
same,glycan array binding signal (z-score),[36],0.341
same,glycan array binding signal (z-score),[37],0.414
same,glycan array binding signal (z-score),[38],-0.672
same,glycan array binding signal (z-score),[39],-0.203
same,glycan array binding signal (z-score),[40],-0.549
same,glycan array binding signal (z-score),[41],-0.674
same,glycan array binding signal (z-score),[42],-0.373
same,glycan array binding signal (z-score),[43],-0.361
same,glycan array binding signal (z-score),[44],-0.464
same,glycan array binding signal (z-score),[45],1.55
